# Assay results published in ChEMBL document CHEMBL4888484, “Replenishing the malaria drug discovery pipeline: Screening and hit evaluation of the MMV Hit Generation Library 1 (HGL1) against asexual blood stage Plasmodium falciparum ,using a nano luciferase reporter read-out” (2022).
# Out of some 150,000 compounds screened, about 540 (0.36%) showed an effect of 50% or more. Some of the results follow.
# Tested on: Plasmodium falciparum
# Experiment: Primary screen in NF54 nanoGlo assay, in single point, at 2uM, 72h; a lower Z score goes with more inhibition
# Format: functional, Erythrocyte
# Settings: timepoint 72 hour
Compound,% Inhibition [%],Z score
Cc1ccccc1C1(C(=O)Nc2cnn(CC(=O)N3CCOCC3)c2)CCCC1,-4,0.44
CC[C@H](Oc1ccc(F)cc1)C(=O)NCc1csc(C)n1,19,-2.21
Cn1nncc1C(=O)N1CCS(=O)(=O)C[C@H]1C(C)(C)C,-3,0.48
O=C(Nc1ccc2c(c1)C(N1CCCC1)=Nc1ccccc1O2)c1ccccc1Cl,0,0.03
O=C(NCc1cccs1)c1cccn1CCN1CCOCC1,-4,0.52
COC1CCN(CCN2CCN(c3ccccc3)CC2)CC1,-10,1.84
Nc1nc2ccc(N3CCCC3)cc2s1,37,-2.32
O=S(=O)(NCC1CC1)c1cnc(NCCO)c(C(F)(F)F)c1,-6,1.29
Cc1nc(C)c(-c2ccnc(N(C)C)c2)o1,-4,0.72
O=C(Nn1nnc2ccccc21)c1cccc(C(F)(F)F)c1,3,-0.47
O=C(c1ncoc1C1CC1)N1CCOC[C@@H](O)C1,13,-1.88
COc1ccc(OC)c(S(=O)(=O)N2CCCCCCN(C)C(=O)CC2)c1,-10,1.34
Cc1noc([C@@H]2CN(C(=O)Cc3c(C)noc3C)C[C@H]2C(N)=O)n1,-10,1.53
Cc1nc2ccc(-n3ncnc3COC[C@H]3CCCCO3)cc2s1,-6,1.09
CCc1ncc(NC(=O)NCC[C@H]2CCC(F)(F)C2)cn1,-4,0.59
COc1c(Br)cccc1C(=O)N[C@@H]1COC[C@@H]1OC,-4,0.55
COc1cccc2c1CC[C@@H]2Nc1nc(-c2ccccc2)no1,24,-3.03
CCCN1CCN(C(=O)c2cc(Cl)cc(OC)c2)[C@H]2CS(=O)(=O)C[C@H]21,-5,0.94
O=C(Cc1cccs1)NCc1ccnc(-c2cccnc2)c1,-7,1.1
Cc1n[nH]c(C(=O)NCCc2ncn(C)n2)c1C,11,-1.45
O=C(O)C[C@H]1CN(C(=O)c2csc3ccccc23)CCO1,-4,0.61
Cc1c[nH]c(CN2C[C@@H](CC(=O)O)[C@@H](c3cn(C)nn3)C2)c(C)c1=O,-12,1.59

Compound,% Inhibition [%],Z score
O=C(O)C1C2C=CC(O2)C1C(=O)Nc1ccccc1Cc1ccccc1 (stereo not given),-43,5.09
O=C(c1cccnc1-c1ccc(OCc2ccccc2)nc1)N1CCCC1,-12,1.15
CN(C(=O)c1ccccc1)S(C)(=O)=O,-6,1.05
COCc1nnc(NC(=O)c2nc(C)sc2-c2ccccc2)s1,-16,2
CCS(=O)(=O)Oc1cc(CN(CC(C)C)C(=O)CC(C)C)ccc1OC,-11,1.53
COCCn1nnnc1[C@]1(N(C)C)CCCN(C(=O)c2ccccn2)C1,-13,1.68
O=C(Nc1ccccc1C(F)(F)F)Nc1c(-c2cccnc2)[nH]c2ccccc12,-2,0.36
CC(=O)Nc1cccc(Nc2c(C(=O)N3CCCC[C@@H]3C)cnc3nc(C)ccc23)c1,-8,1.29
Cc1ccc(-c2n[nH]cc2CN2C[C@@H]3[C@H](C2)[C@H]3C(=O)NC(C)(C)C)cc1,1,-0.22
O=S1(=O)CC[C@H](n2nc(C3CCOCC3)nc2-c2ccc[nH]2)C1,-4,0.8
CCCN1CCC(NC(=O)c2cn(C3CCCCC3)nn2)CC1,-2,0.24
CN(Cc1ccccc1F)C(=O)[C@@](C)(O)C1CCOCC1,0,-0.04
Cc1cccc(CN2C[C@]34C=C[C@H](O3)C(C(=O)N3CCS(=O)(=O)CC3)C4C2=O)c1 (stereo not given in full),1,-0.19
COc1ccc(-c2ccc(C(=O)N[C@H]3COC[C@@H]3O)c(=O)[nH]2)cc1,-21,4
c1cc(NCc2cnc3cnccn23)cc(-c2nc(C3CC3)n[nH]2)c1,-19,2.65
OC(CCc1ccccc1)CNC(Cn1cncn1)C1CC1 (stereo not given),-29,3.41
CCOC(=O)Nc1cccc(N[C@@H](C)C(=O)NC(=O)NC)c1C,3,-0.29
CCN(CC)S(=O)(=O)c1ccc(N2CCN(C)CC2)c(N)c1,-18,1.49
Cc1nc(-c2nnn(-c3ccc(F)cc3)c2C)sc1C(=O)NCc1cccs1,-3,0.5
Cc1oncc1C(=O)N(C)C[C@H]1Cc2ccccc2CO1,-3,0.32
Cn1cncc1C1CCN(S(=O)(=O)c2c(F)cccc2F)CC1,2,-0.38
O=C(C1CCC1)N(Cc1cccc(Cl)c1)C[C@H]1CC(c2ccccc2F)=NO1,-13,1.33

Compound,% Inhibition [%],Z score
CC(CN1CC(C(N)=O)O[C@H](C)C1)c1cccc(Cl)c1 (stereo not given in full),-3,0.53
Cc1[nH]nc(CCC(=O)N2CCC[C@H](Cn3ccnc3C)C2)c1C,-11,1.77
Cc1nc(N2C[C@H](O)[C@@H](N3CCCC3)C2)c2cnn(C)c2n1,-11,1.78
CCc1ncnc(N2CCOC[C@@H]2CNC(=O)c2cc(C(N)=O)co2)c1F,25,-3.13
O=C(Oc1cc(-c2ccccc2)no1)c1ccc(Cl)cc1,-3,0.41
CC[C@H]1CCCN(C(=O)c2cc(C(C)C)on2)CC1,2,-0.23
C[C@H](NC(N)=O)C(=O)NCc1cccnc1OCc1ccccc1,-7,0.93
O=C(Cc1csc(Cc2cccc(Cl)c2)n1)Nc1ccc2c(c1)OCCCO2,-2,0.25
CCOC(=O)C(=O)Nc1nc(=S)ss1,3,-0.39
COC1CCN(C[C@H]2CCCCCN2C(=O)c2ccc(F)cc2)CC1,1,-0.14
COc1cccc2c(Nc3ccc(C(=O)O)cc3)cc(C)nc12,-3,0.28
COc1cccc(C2=NO[C@H](C(=O)N3CCc4ccccc4C3)C2)c1,10,-1.58
CN(C)c1ccc(C(=O)NC2CC2)cc1N,1,-0.08
CC(C)[C@H]1CN(C(=O)Cc2ccsc2)C[C@@H]1C(=O)O,-1,0.21
C[C@H](NC(=O)CN1CN(c2ccccc2)C2(CCN(C(=O)CC(C)(C)C)CC2)C1=O)c1ccccc1,-1,0.09
Cc1cccnc1C(=O)NCCN1CC[C@H](N2CCOCC2)C1=O,-6,0.79
CC(C)c1nnc(N2C[C@@H]3CN(C(=O)C4CCCC4)C[C@]3(C(=O)O)C2)s1,-6,1.18
Cn1nc(-c2ccccc2)c2[nH]c(-c3ccc(-n4ccnc4)cc3)nc21,-5,0.45
CC(C)(C)c1cc(C[C@@H]2CC[C@H](O)[C@@H](CN)O2)no1,0,-0.02
COc1ccc([C@H](C)NC(=O)c2cccc(N(C)S(C)(=O)=O)c2C)cc1,-1,0.2
O=C(NC1CC1)N(CC1(O)CCCC1)CC1(O)CCCC1,-3,0.48
CN(Cc1nnc[nH]1)C(=O)Nc1ncc(C2CCCCC2)s1,-2,0.27

Compound,% Inhibition [%],Z score
O=C(Cn1c2c(c(=O)n(C3CCCCC3)c1=O)CCC2)Nc1ccc2c(c1)OCCO2,-11,1.88
CCO[C@H]1CN(C(=O)COc2cccnc2)C[C@@H]1O,2,-0.18
O=C(Cc1c(F)cccc1Cl)N1CC[C@H](n2nccn2)C1,-8,1.54
O=C(Cn1c(=O)n(CCCC(=O)NC2CCCC2)c(=O)c2cc(Cl)ccc21)Nc1ccc(Cl)cc1Cl,-12,1.81
CCOCCO[C@@H](C)C(=O)Nc1cc(C)ccc1NS(C)(=O)=O,-14,1.95
O=C(Nc1ccc(F)cc1)c1nc(-c2cn(-c3cccc(Cl)c3)nn2)no1,10,-1.89
COc1ccc(S(=O)(=O)Nc2cccn3nc(C4CCC4)nc23)cc1,0,-0.02
C=CCN1CCN(C(=O)c2csc(NC(=O)c3cc(F)cc(F)c3)n2)CC1,-5,0.93
Cc1nn(C)c(OCC(F)(F)F)c1CNC[C@](C)(O)c1cccc(Cl)c1,-8,1.42
CCC1(C)CCN(Cc2nnc(C)s2)CC1,-19,2.06
Cc1nn(C)c(C)c1C[C@H](C)C(=O)N1CCc2nc[nH]c2C12CCC2,6,-0.63
CC(C)n1nccc1CN[C@H]1CCc2ccccc2OC1,-9,1.38
CCN(CC(F)(F)F)C(=O)N[C@H](C(=O)O)c1ccccc1,4,-0.55
COc1ccccc1-n1nc(CC(C)C)nc1Cc1c(C)[nH][nH]c1=O,-8,1.29
COc1ccccc1-c1nc(C)nc(N2CCCC2)c1N,-6,1.09
Cc1ccc(C)c(S(=O)(=O)Oc2ccccc2C(=O)OCC(=O)N(CCC#N)c2ccccc2)c1,-14,1.53
NC(=O)c1cc(N)c(Cl)cc1Cl,-15,2.95
Cc1ccc(OCc2ccc(Cl)cn2)c(CO)n1,-6,0.62
CC(=O)N1CCCN(C(=O)C[C@H]2CCc3ccccc3C2)CC1,11,-1.76
